The other results are listed elsewhere or left out.

The results in this text go back to the supplement of paper PMC11417369.

This experiment relates to PfAP2-HC AP2 domain (GST-tagged). Nature of the experiment: gcPBM binding intensity (ln(normalized median fluorescence intensity)); higher = stronger DNA binding. In outline:
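Alexa488 anti-GST antibody, scanned at 488 nm, detected GST-tagged P. falciparum DNA-binding domains that had been expressed in E. coli and incubated for 1 h on an Agilent 4 × 180k array. The array carried primer-extended double-stranded 36-bp intergenic genomic probes and negative controls. Binding intensity is the highest Masliner-normalised natural-log median intensity across replicate spots of either orientation of each probe.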
Turning to “TTTTGGCTGATCAGATTTAACAAAAAAAAAAAAAAA [CACACA_negctrl_site671]”, the “gcPBM binding intensity (ln)” value came to 8.93.

Turning to “CCTTCAATTTACATAACACACATTTAACCATAATAA [CACACA_site2394]”, the “gcPBM binding intensity (ln)” value was 9.65.

For the sequence “CAAATATATATTTTCTGTACAAATACAATTAATACT [XGTACX_site2694]”, the “gcPBM binding intensity (ln)” value came to 9.54.

“TTTAGCCAATTTTTAAAGTTTAAAAAAGAAAAAAGA [CACACA_negctrl_site118]”: the “gcPBM binding intensity (ln)” value stood at 9.15.

For “TATTAAAAATACATATGTACTCATAGCATAAAACAT [XGTACX_site8686]”, the “gcPBM binding intensity (ln)” value came to 9.69.

As to “ATATATATATTTGTGTGTACATATTAATTTGTATGA [XGTACX_site4047]”, the “gcPBM binding intensity (ln)” value turned out to be 9.86.

With “AACGCGAACAATTTATAGATAACTTTTAATTATTAT [GTGCAC_negctrl_site179]”, the “gcPBM binding intensity (ln)” value turned out to be 9.55.

With “AATATATATATAGGATGTACACATAATTCAAATACA [XGTACX_site6368]”, the “gcPBM binding intensity (ln)” value came out at 9.92.

For the sequence “ATTTAATACAAATACACACACAAATATATACATATA [CACACA_site3747]”, the “gcPBM binding intensity (ln)” value was determined as 10.4.

Regarding “TATATATATATAAACTGTACTATTTTATGTTAAAAG [XGTACX_site3630]”, the “gcPBM binding intensity (ln)” value amounted to 9.62.

Turning to “ATGGTATATCCAAATAAACACACGTAAATACATAAA [CACACA_site1682]”, the “gcPBM binding intensity (ln)” value stood at 9.84.

In the case of “ATACATTTTTGTAAAAGTACATATACATGCCCCCTT [XGTACX_site1367]”, the “gcPBM binding intensity (ln)” value is 9.72.

With “TTCCAAAATTGCATTTGTACCCAAAAAATGTATACG [XGTACX_site7680]”, the “gcPBM binding intensity (ln)” value stood at 9.46.

On to “GTAAGTTTGAATACACGTACAAATTTATTAAAGTCC [XGTACX_site6722]”, for which the “gcPBM binding intensity (ln)” value is 9.72.

As for “AGATATTAAAACGTTACACACATTTATATATCTTCT [CACACA_site908]”, the “gcPBM binding intensity (ln)” value was 9.84.

For the sequence “ATCAGTCGGCAGGACAGTACACAGTAGCCAGGAAAT [XGTACX_site2003]”, the “gcPBM binding intensity (ln)” value was found to be 9.68.

Consider “GCTTTTTATTTTTACCGTACATTATATATGTATATA [XGTACX_site808]”, for which the “gcPBM binding intensity (ln)” value came out at 9.94.

As for “ATATTATTAATTTATAGTACTCATTTTTTTTTTTTT [XGTACX_site3536]”, the “gcPBM binding intensity (ln)” value was found to be 9.61.

Turning to “TTTCTAGTTACAAGAGTGCATAATATATAAAAATAA [GTGCAC_site9874]”, the “gcPBM binding intensity (ln)” value came to 9.48.

Turning to “TATAAATACAATTCACAAGAGATCATGTATCAAACC [CACACA_negctrl_site1219]”, the “gcPBM binding intensity (ln)” value amounted to 9.71.

For “TATATATATATATATACACACATTTTTAATGATAAA [CACACA_site2695]”, the “gcPBM binding intensity (ln)” value was found to be 9.62.

As to “ATATAATAAATATGTTGTACTATAAAAAATAGCCAT [XGTACX_site4710]”, the “gcPBM binding intensity (ln)” value came to 9.66.

On to “TTTATAATTTATATCACACATATATCTGTAATAAAT [CACACA_site5048]”, for which the “gcPBM binding intensity (ln)” value stood at 9.6.

Turning to “ATCTCTGTAAAGATCACACATATATTTTTGTTATAT [CACACA_site5094]”, the “gcPBM binding intensity (ln)” value worked out at 9.78.

For the sequence “TATATATTATATATATGTACATATTGTTGTGTATAT [XGTACX_site767]”, the “gcPBM binding intensity (ln)” value was found to be 9.76.

“CATATATGTTATATTTAACACACATATAAGGTACAT [CACACA_site8105]”: the “gcPBM binding intensity (ln)” value stood at 9.74.

Turning to “CAGCTCTTAAAAATTACACACATATACACATATATA [CACACA_site9073]”, the “gcPBM binding intensity (ln)” value turned out to be 9.83.

For the sequence “TTATTACACACATATGTGCACATATAAAAGTACACG [GTGCAC_site9581]”, the “gcPBM binding intensity (ln)” value was 9.76.

For “TTATATTTTCAGAATAGTACACATATATACATATAT [XGTACX_site2519]”, the “gcPBM binding intensity (ln)” value worked out at 9.86.

For “AAAAATTCTTGGCGCACACACTTTAAAAATTAAAAA [CACACA_site4498]”, the “gcPBM binding intensity (ln)” value was found to be 9.81.

Regarding “GATCATTTAAAATAAGTAATATTTTTTTTACTTTTG [TGCATGCA_negctrl_site602]”, the “gcPBM binding intensity (ln)” value is 9.46.

“TTATAAAAGAAAAAAAAAAAAAAAAAAAAAAAAAAA [CACACA_negctrl_site1006]”: the “gcPBM binding intensity (ln)” value turned out to be 8.67.

For “ACTAATTACTATAAAACACACATATATATATATATA [CACACA_site2591]”, the “gcPBM binding intensity (ln)” value turned out to be 9.87.

For the sequence “TTAGTCGAATGATGTACACACATACAAAACATTTAT [CACACA_site6076]”, the “gcPBM binding intensity (ln)” value was found to be 9.93.

In the case of “AGAAAATATTTTGGTTGTACAGGCGATTTATATGTT [XGTACX_site7253]”, the “gcPBM binding intensity (ln)” value was determined as 9.73.

“AAAAAAAAAAAAAAAAAAAAAAAAAAAAGAAAAAAG [GTGCAC_negctrl_site583]”: the “gcPBM binding intensity (ln)” value turned out to be 8.98.

“CGTGGGAGCAGACACACACACACACGCATATTTATA [CACACA_site6290]”: the “gcPBM binding intensity (ln)” value worked out at 10.3.

Regarding “ATGGACAAAAAATATATACACACGAGGAAACCAACA [CACACA_site3726]”, the “gcPBM binding intensity (ln)” value is 10.2.

Take “TTTTGTTTTTACGAATACTTTTTTAATTTTATTTAT [TGCATGCA_negctrl_site395]”: the “gcPBM binding intensity (ln)” value turned out to be 9.55.

On to “CATGCATACTACATCTGTACACATACATTATATTTA [XGTACX_site2495]”, for which the “gcPBM binding intensity (ln)” value came to 9.9.

Turning to “AGCATTTTAAAAGAAAAAAAAAAAAAAAAAAAAATA [GTGCAC_negctrl_site723]”, the “gcPBM binding intensity (ln)” value was found to be 9.17.

Consider “ATCTATGTTCCTTTTACACACATAATCTTTTTTTTA [CACACA_site5468]”, for which the “gcPBM binding intensity (ln)” value was found to be 9.98.

In the case of “ATATATATATATTATACACACAAAAATATTTTGTAT [CACACA_site266]”, the “gcPBM binding intensity (ln)” value is 9.77.

As to “ATAACATTCTATGTTGCACACAAAGAGAAAAATTTA [CACACA_site9322]”, the “gcPBM binding intensity (ln)” value stood at 9.79.

Turning to ACGCAATATTAACAAGTGCATTATAACACATAACAT, the “gcPBM binding intensity (ln)” value amounted to 9.63.

For the sequence “GTAAATTATATAACAAATAAAAATGTACATATATAT [CACACA_negctrl_site408]”, the “gcPBM binding intensity (ln)” value was 9.81.

For the sequence “TATACTTTATATATTTTGTATATATATTTTTTTTAT [TGCATGCA_negctrl_site530]”, the “gcPBM binding intensity (ln)” value is 9.7.

Turning to “TCTTGTTATTTAAATGCATGTTGATTTTAAAAAATT [TGCATGCA_site840]”, the “gcPBM binding intensity (ln)” value amounted to 9.53.

As for “AATAAAAAGTAATAATAACGTATAATTTATTATACT [TGCATGCA_negctrl_site414]”, the “gcPBM binding intensity (ln)” value is 9.57.

Take “ATATATATAGATTGTACACACATTTATGCATATATA [CACACA_site3222]”: the “gcPBM binding intensity (ln)” value is 9.89.

Take “TTTTTTTTTAGAAAAACATGCATGTCCTAAAAATAA [TGCATGCA_site684]”: the “gcPBM binding intensity (ln)” value stood at 9.25.

For “TGGCAAAATAGGCACACACACATATACATCTATATT [CACACA_site6626]”, the “gcPBM binding intensity (ln)” value turned out to be 10.7.

For the sequence “ATATGATAAATTATATGTACTTAAAATATATTATAA [XGTACX_site5904]”, the “gcPBM binding intensity (ln)” value was 9.6.

In the case of “AAAAAAAAAAAAAAAAAAAAAAAAACAATGAATTTA [GTGCAC_negctrl_site698]”, the “gcPBM binding intensity (ln)” value amounted to 9.64.

As for “AGTAGATATAATTATAGTACTTTGATGTTTTCTTTA [XGTACX_site5038]”, the “gcPBM binding intensity (ln)” value was 9.62.

As for “ATGTATTTATTATTTAGTACACATTATTTTCTTATA [XGTACX_site6365]”, the “gcPBM binding intensity (ln)” value amounted to 9.7.
